# Hit rate of the full screen: of about 43,000 compounds, about 200 (0.47%) were called active. Roughly 12% stayed inconclusive and do not appear here. Calls follow the shape of the dose curve; as a rule, active = well fitted cell-killing curve with a large enough effect; inconclusive = small, poorly fitted or top-dose-only effect, or effect the other way; inactive = flat fitted curve, though single readings scatter. Some of the results follow.
# Assay: Cell viability qHTS assay in S16 Pmp22-F2sN cells; also: nearly all actives have a fitted effect of over 65% in size
# Settings: S16 Pmp22-F2sN Schwann cells viability, CellTiter-Glo, 24 h; series mostly up to 57.5 µM; activity change, negative = cytotoxicity: at the top concentration
# Method in brief: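 Viability was measured by CellTiter-Glo luminescence (15 min, room temperature). This followed 24 h at 37 °C of compound exposure (23 nL pin transfer) in S16 Pmp22-F2sN Schwann cells, 500-1,000 per well.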
# % is scaled to controls: 0 for no effect and ±100 for the full control effect.
row,Structure (SMILES),"activity change, negative = cytotoxicity"
1,O=S(=O)(NCCc1csc2nc(-c3ccc(F)cc3)nn12)c1ccc(Oc2ccccc2)cc1,inactive: -19.7%
2,CCOc1ccc(CCNC(=O)c2ccc3c(c2)sc2nc(-c4ccc(F)cc4)cn23)cc1OCC,inactive: 4.29%
3,CC1CN(C(=O)CCC(=O)NCc2ccccc2)c2cc(Cl)ccc2O1 (configuration not stated),inactive: -22%
4,CC(C)(C)NC(=O)c1ccc2nc(CCc3ccccc3)oc2c1,inactive: 0.11%
5,COc1ccc(-c2nc(-c3ccccc3)c(-c3ccc(F)cc3)[nH]2)c(OC)c1C,inactive: -2.35%
6,CCOC(=O)c1ccn(-c2nc(-c3cccc(OC)c3)cc(C(F)(F)F)n2)n1,inactive: 1.41%
7,Cc1ccc(N2CC(NC(=O)C3CC3)CC2=O)cc1C (configuration not stated),inactive: 0.223%
8,Cc1nc2sccn2c(=O)c1S(=O)(=O)Nc1ccc(N2CCN(C(=O)C(C)C)CC2)cc1,inactive: -8.11%
9,CCOC(=O)c1[nH]c(C)c(CCC(=O)Nc2ccc(Br)c(C)c2)c1C,inactive: -1.13%
10,Cc1ccc(C(CC(=O)Nc2ccc(F)c(Cl)c2)N2Cc3ccccc3C2=O)cc1 (configuration not stated),inactive: 4.44%
11,COc1cccc(NC(=O)N(Cc2c[nH]c3ccccc23)C2CCCCC2)c1,inactive: 16.5%
12,COc1cccc(CNCCSc2nnnn2C)c1OCc1ccc(F)cc1,inactive: -8.78%
13,CC(C)c1ccc(NC(=O)CCn2c(=O)c3cccn3c3ccccc32)cc1,inactive: -8.45%
14,Cc1ccc(-c2nc3c4ccccc4n(CC(=O)N4CCN(c5ccc(F)cc5)CC4)c(=O)n3n2)cc1,inactive: 0.455%
15,Cc1cc(C)cc(Nc2cc(C)nc3nc(-c4ccco4)nn23)c1,inactive: -13.1%
16,CCOC(=O)c1c(NC(=O)c2cc(-c3ccc(Cl)cc3)on2)sc(C)c1C,inactive: -0.472%
17,CCC(C)NC(=O)Cn1c(-c2cccs2)cc2cc(Cl)ccc21 (configuration not stated),inactive: 3.59%
18,Cc1cc(N2CCC(C(=O)NCCC(C)C)CC2)n2nc(C)c(-c3ccc(Cl)cc3)c2n1,inactive: 11.4%
19,Cc1ccc(CN(C(=O)c2ccccc2[N+](=O)[O-])c2ccccn2)cc1,inactive: 15.7%
20,Cn1c(=O)c2c(SCC(=O)Nc3ccc(F)cc3F)nc(C3CCCC3)nc2n(C)c1=O,inactive: 15%
21,CCOC(=O)c1cnc(N2CCN(c3ccc(C)cc3C)CC2)c2ccccc12,inactive: 2.17%

row,Structure (SMILES),"activity change, negative = cytotoxicity"
1,CC(C)(C)c1ccccc1NC(=O)c1cnn2c(C(F)F)cc(-c3ccccc3)nc12,inactive: 19%
2,CSc1cccc(NC(=O)CN2C(=O)COc3ccc(S(=O)(=O)N4CCC(C)CC4)cc32)c1,inactive: -6.26%
3,Cc1ccc(C)c(NC(=O)Cn2ccn(-c3ccc(F)cc3)c(=O)c2=O)c1,inactive: -4.04%
4,CCOC(=O)c1cc(OC(=O)c2cc(OC)cc(OC)c2)n(-c2ccccc2)n1,inactive: 6.23%
5,Clc1ccc2nc(-c3cccs3)c(Nc3ccc4c(c3)OCCO4)n2c1,inactive: -4.38%
6,CCc1nonc1NC(=O)c1oc2ccc(Cl)cc2c1C,inactive: -3.28%
7,Cc1ccc(Cl)cc1NC(=O)Cn1c(SCC(=O)NCc2ccccc2)nc2ccccc21,inactive: -7.29%
8,CCOC(=O)c1c(NC(=O)CSc2cn(CCNC(=O)c3ccc(OCC)cc3)c3ccccc23)sc2c1CCC2,inactive: 8.53%
9,COCCCNC(=O)c1ccc(-n2c(-c3ccccc3)cc3c2CCCCC3)cc1,inactive: 14%
10,CC1Cc2cc(S(=O)(=O)NCc3ccccc3)ccc2N1C(=O)C1CCC1 (configuration not stated),inactive: 5.43%
11,CC1=C(C(=O)OC2CCCCCC2)C(c2ccc(Cl)cc2Cl)CC(=O)N1 (configuration not stated),inactive: 26.4%
12,COc1ccc(CNC(=O)CC2Oc3ccc(C)cc3NC2=O)cc1 (configuration not stated),inactive: 9.34%
13,COc1cccc(CNC(=O)c2cc(=O)[nH]c3ccc(S(=O)(=O)N4CCCC4)cc23)c1,inactive: -2%
14,COc1ccc(CCNc2nc(SCc3cccc(Cl)c3)nc3ccccc23)cc1OC,inactive: 23.6%
15,CCOc1ccc(CCNC(=O)c2nn(C)c3c2CSc2ccc(C)cc2-3)cc1OCC,inactive: -24%
16,Cc1cccc(Cn2c(CN3CCCC(C)C3)nc3c2c(=O)n(C)c(=O)n3C)c1 (configuration not stated),inactive: 1.68%
17,Cc1ccc(S(=O)(=O)N2CCc3cc(C(=O)Nc4c(C)cccc4C(C)C)ccc32)cc1,inactive: -0.303%
18,COC(=O)c1cc2oc3ccccc3c2n1CC(=O)Nc1ccc(F)c(Cl)c1,inactive: 6.76%
19,Cc1ccccc1Cn1c(C)c(CNCCCc2ccccc2)c(C(=O)O)c1C,inactive: 4.52%
20,COc1ccc(C2C=C(c3ccc(Cl)cc3)Nc3nc(NC(=O)CCC(=O)O)nn32)cc1 (configuration not stated),inactive: 2.69%
21,Cc1ccccc1Nc1c(-c2c[nH]c3ccccc23)nc2cccc(C)n12,inactive: -2.36%

row,Structure (SMILES),"activity change, negative = cytotoxicity"
1,CCCOc1cccc(C(=O)N2CCCCC2CCN2CCCCC2)c1 (configuration not stated),inactive: 5.4%
2,CCC(C)NC(=O)Cn1c(=O)c2cccn2c2ccc(F)cc21 (configuration not stated),inactive: 2.17%
3,O=C(Nc1ccc(F)cc1Cl)c1cnc(N2CCOCC2)c2ccccc12,inactive: 1.38%
4,Cc1ccc(NC(=O)CCc2nc3cccnc3n2-c2ccccc2)cc1Cl,inactive: -1.55%
5,COc1ccc(-c2csc3nc(-c4ccc(C)cc4)oc(=O)c23)cc1OC,inactive: 7.09%
6,Cc1ccc(N(Cc2cccs2)C(=O)c2ccccc2[N+](=O)[O-])cc1,inactive: -17.4%
7,CCn1cc2nc(SCC(=O)Nc3ccc(OC)cc3OC)n(Cc3ccc(Cl)cc3)c(=O)c2n1,inactive: -2.38%
8,CCCCN(C)c1nnc(NC(=O)Nc2ccc(Br)c(C)c2)s1,inactive: 7.82%
9,CCc1ccc(CN(Cc2ccco2)C(=O)c2cc(-c3ccc(C)c(F)c3)on2)cc1,inactive: 3.52%
10,CCOc1ccc(NC(=O)Cn2cc(C(=O)c3ccc(C)cc3)c(=O)c3cc4c(cc32)OCO4)cc1,inactive: 6.09%
11,CCOCCc1nn2c(=O)cc(COC(=O)c3ccccc3NC(=O)c3ccc(C)cc3)nc2s1,inactive: 7.06%
12,Fc1ccccc1N1CCN(c2ncnc3c2nc2n3CCCC2)CC1,inactive: -10%
13,COc1ccc(CCNC(=O)CCCCn2c(=O)c3ccccc3n(Cc3ccccc3)c2=O)cc1OC,inactive: 10.7%
14,CCOC(=O)c1ccc(NC(=O)CSc2ncc(S(=O)(=O)c3ccc(C)c(Cl)c3)c(=O)[nH]2)cc1,inactive: 12.6%
15,O=C(CNS(=O)(=O)c1cccs1)N1CCN(c2ccccc2F)CC1,inactive: 9.92%
16,Cc1ccc(F)cc1S(=O)(=O)N1CCC(c2nc3ccccc3s2)CC1,inactive: 8.33%
17,CCCn1c(=O)c2sccc2n2c(CCCC(=O)NC3CCCCC3)nnc12,inactive: 25.4%
18,CCn1c2c(c(=O)n3ncc(C(=O)Nc4ccc(Cl)cc4C)c13)CN(Cc1ccc(OC)cc1)CC2,inactive: 0.416%
19,Brc1cccc(-c2nnn3c2nc(N2CCCCC2)c2ccccc23)c1,inactive: 11.2%
20,O=S(=O)(NCCc1csc2nc(-c3ccccc3)nn12)c1ccc(Oc2ccccc2)cc1,inactive: -19.2%

# From PubChem BioAssay AID1508642 (National Center for Advancing Translational Sciences (NCATS), 2021)
